# Hit rate of the full screen: of about 310,000 compounds, about 2,200 (0.71%) showed an effect of 50% or more. The effect is printed as a negative number. Some of the results follow.
# Biological target: human ether-à-go-go-related gene (hERG) potassium channel (human, UniProt Q12809)
# Test: primary screen, population patch clamp on CHO cells stably expressing hERG
# Chain of human ether-à-go-go-related gene (hERG) potassium channel (Q12809 whole entry, looked up): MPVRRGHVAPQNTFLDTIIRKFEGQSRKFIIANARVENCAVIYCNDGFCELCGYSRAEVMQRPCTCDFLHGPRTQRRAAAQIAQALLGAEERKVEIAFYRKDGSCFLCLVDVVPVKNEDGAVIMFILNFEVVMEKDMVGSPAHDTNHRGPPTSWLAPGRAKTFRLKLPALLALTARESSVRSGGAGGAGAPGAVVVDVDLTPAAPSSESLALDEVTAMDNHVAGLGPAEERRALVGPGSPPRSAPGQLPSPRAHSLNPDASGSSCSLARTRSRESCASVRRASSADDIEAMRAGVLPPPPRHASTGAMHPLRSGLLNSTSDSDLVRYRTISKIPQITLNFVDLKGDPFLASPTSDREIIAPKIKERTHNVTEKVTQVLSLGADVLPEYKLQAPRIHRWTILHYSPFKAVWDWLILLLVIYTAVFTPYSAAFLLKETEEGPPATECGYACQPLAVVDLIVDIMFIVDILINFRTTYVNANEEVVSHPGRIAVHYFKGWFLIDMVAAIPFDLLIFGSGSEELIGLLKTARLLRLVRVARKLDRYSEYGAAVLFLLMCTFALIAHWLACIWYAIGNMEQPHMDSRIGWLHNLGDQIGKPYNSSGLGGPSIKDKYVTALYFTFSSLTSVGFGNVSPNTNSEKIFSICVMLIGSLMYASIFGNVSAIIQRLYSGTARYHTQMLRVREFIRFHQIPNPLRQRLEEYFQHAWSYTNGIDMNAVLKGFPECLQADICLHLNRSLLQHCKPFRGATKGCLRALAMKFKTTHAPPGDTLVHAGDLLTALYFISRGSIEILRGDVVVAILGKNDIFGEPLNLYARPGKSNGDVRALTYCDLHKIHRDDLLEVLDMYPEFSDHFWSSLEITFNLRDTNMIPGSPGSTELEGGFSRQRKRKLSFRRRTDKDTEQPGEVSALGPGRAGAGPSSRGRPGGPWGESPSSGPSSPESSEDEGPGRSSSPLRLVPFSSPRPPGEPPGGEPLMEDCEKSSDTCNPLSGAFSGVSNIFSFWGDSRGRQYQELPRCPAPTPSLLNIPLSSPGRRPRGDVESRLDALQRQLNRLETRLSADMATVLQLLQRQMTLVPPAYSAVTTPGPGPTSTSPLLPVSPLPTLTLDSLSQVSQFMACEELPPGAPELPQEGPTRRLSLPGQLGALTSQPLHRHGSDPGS
row,SMILES,"hERG current change (%, negative = inhibition) at 1uM [%]"
1,Cc1ccc(-c2nn(C(C)(C)C)c3ncnc(NS(=O)(=O)c4ccc([N+](=O)[O-])cc4)c23)cc1,-2.06
2,COc1ccccc1-n1nnnc1SC(C)C(=O)NC1CCCC1 (stereo not shown),12.9
3,CCOc1ccc2nc(SCC(=O)Nc3ccc(S(=O)(=O)N4CCCC4)cc3)c(C)cc2c1,4.81
4,CC1(C)Cc2ccccc2-c2nc(-c3ccccc3)oc(=O)c21,-1.19
5,CC(C)c1cccc(C(C)C)c1OCCn1ccnc1,-0.22
6,CCOc1nnc(C)c2c(C)n(-c3ccc(Cl)cc3)nc12,-2.61
7,CN(C)CCCn1c(=O)n(Cc2ccco2)c(=O)c2c3c(sc21)CCCCC3,-40.7
8,Cc1cccc(-c2nc3ccccc3c(=O)n2NC(=O)c2ccc([N+](=O)[O-])c(C)c2)c1,-1.13
9,CCC(NC(=O)COc1cc2c(c3oc(=O)c(C)c(C)c13)CCC(C)(C)O2)C(=O)O (stereo not shown),0.462
10,Cc1ccc2nc3c(cc(C(=O)NCCc4ccccc4)c(=N)n3CCN3CCOCC3)c(=O)n2c1,-82.9
11,CC(C)[C@H](NC(=O)c1ccco1)C(=O)OCC(=O)c1ccc2c(c1)NC(=O)CO2,13.5
12,NS(=O)(=O)c1ccc(NC(=O)C2(c3ccccc3)CCCC2)cc1,13.7
13,Cc1ccc(NC(=O)CSCC(=O)O)c(C)c1,23.5
14,COC(=O)c1ccc(NC(=O)CSC2=NCCN2)cc1.Cl,10.2
15,COc1ccc(OC)c(CCNC(=O)c2sc3nc4n(c(=O)c3c2C)CCC4)c1,22.4
16,CCOc1ccc(CN2CCNC(=O)C2CC(=O)OC)cc1 (stereo not shown),31
17,Cc1cc(C)c(C#N)c(Oc2ccc(O)cc2)n1,10.9
18,N#Cc1cccc(-n2nnnc2-c2ccc3c(c2)OCO3)c1,11.5
19,CN(CC(=O)Nc1ccccc1Cl)C(=O)COC(=O)C1CCN(c2ccc(C(F)(F)F)cn2)CC1,4.9
20,CCOc1ccccc1N1CCN(C(=O)c2cc3cc(OC)ccc3[nH]2)CC1,12.8
21,O=C(/C=C/c1ccccc1Cl)NCc1ccccc1,11.7
22,CC(C)=CCN1CCN(Cc2ccc(C#CC(C)(C)O)s2)CC1CCO (stereo not shown),8.79

row,SMILES,"hERG current change (%, negative = inhibition) at 1uM [%]"
1,O=C(c1noc2c1CCCC2)N1CCOCC1,18
2,CCCCOC(=O)c1cc(Cl)c(O)c(OC)c1,10.5
3,N#CC1=C(N)Oc2cc(N)ccc2C1c1ccc(F)cc1F (stereo not shown),-4.19
4,O=C(Nc1ccc(Cl)c([N+](=O)[O-])c1)C(NCCCO)c1ccccc1 (stereo not shown),0.919
5,Cc1ccc(CN2CC(C(=O)Nc3cccc(C)n3)CC2=O)cc1 (stereo not shown),-4.52
6,O=C(CN1CCOCC1)Nc1ccc(Cl)cn1,9.56
7,CC(C)c1ccc(OCC(=O)N(Cc2ccco2)C2CCS(=O)(=O)C2)cc1 (stereo not shown),-28.3
8,CC(C)OP(C)(=O)CN1CCN(CP(C)(=O)OC(C)C)CC1 (stereo not shown),10.9
9,O=C(Nc1ccc(C(=O)N2CCCC2)cc1)Nc1ccc(Cl)cc1Cl,10.4
10,CCOC(=O)/C=c1\s/c(=C\c2ccc(C(F)(F)F)cc2)c(=O)n1CC(=O)NCc1ccco1,8.21
11,C/C(=N\NC(=O)c1ccco1)c1cc2ccccc2o1,4.19
12,O=C(CSc1nncs1)NC1CCCCCCC1,11.4
13,Cc1ccccc1C(=O)N1CCC(C(=O)Oc2ccc(C#N)cc2)CC1,1.54
14,COC(=O)c1ccc(N(C(=O)CNC(=O)c2ccco2)C(C(=O)NC2CCCC2)c2ccco2)cc1 (stereo not shown),11.9
15,Cl.Clc1ccc(OCCOCCN2CCc3ccccc3C2)c(Cl)c1,0.708
16,O=[N+]([O-])c1ccc(/C([O-])=C(/C(=S)NCc2ccco2)[n+]2ccccc2)cc1,2.63
17,CC(=O)N(C)c1ccc(NC(=O)COc2ccc(Br)cc2C)cc1,6.84
18,CC(=O)Nc1c(Cl)n(C(C)=O)c2ccccc12,11.2
19,COc1cc(OC)nc(NC(=S)NC(=O)c2ccccc2)n1,14.3
20,Cc1cccc(C)c1NC(=O)CCS(=O)(=O)c1cccc2nonc12,13.6
21,Cc1ccc(-n2nc(C(=O)N/N=C/c3cccc(C(F)(F)F)c3)c3ccccc3c2=O)cc1C,7.44
22,Fc1ccc(Cn2nnnc2C(c2cccs2)N2CCCCCC2)cc1 (stereo not shown),0.84

row,SMILES,"hERG current change (%, negative = inhibition) at 1uM [%]"
1,O=S(=O)(Nc1ccc2nc(N3CCOCC3)sc2c1)c1ccc(Cl)cc1,0.696
2,CC1=C(C(=O)Nc2cc(C)ccn2)C(c2cnn(C)c2)C2=C(CC(c3ccccc3)CC2=O)N1 (stereo not shown),2.84
3,O=C(CCCCCn1c(=S)[nH]c2ccc(N3CCOCC3)cc2c1=O)NCc1ccccc1Cl,7.56
4,Cc1nc2cc(CO)ccc2n1C,6.74
5,[O-][n+]1onc2c1CCc1nnc(-c3ccccc3)cc1-2,8.5
6,Cc1nc(NC(=O)/C=C/c2ccccc2)sc1C(=O)N(C)C,10
7,CCc1c(C)nc(SCC(=O)Nc2cccc(Br)c2)[nH]c1=O,18.2
8,O=C(Nc1ccccc1)c1ccc2nc(-c3ccco3)c(-c3ccco3)nc2c1,-0.0511
9,CCCCOc1ccc(C(=O)NCC(=O)NCC(c2ccco2)N2CCCCC2)cc1 (stereo not shown),6.21
10,COC(=O)c1ccc(N(CC(=O)NC2CCCCC2)C(=O)CNC(=O)c2ccco2)cc1,6.58
11,CC1CCC(NC(=O)CSc2ccc(S(=O)(=O)N(C)C)cn2)CC1 (stereo not shown),10.3
12,Cc1cccc2cc(C#N)c(SCCN3CCCCC3)nc12.Cl,0.285
13,Cc1ccc(NC(=O)c2noc3c2CCCCC3)cc1,-1.17
14,C=CCn1c(SCc2cc(=O)n3ccsc3n2)nc2sc(C)c(C)c2c1=O,5.87
15,CC(=O)c1cccc(N(CC(=O)O)S(C)(=O)=O)c1,9.89
16,COc1cc2c(cc1OC)CN(C(=O)/C=C/c1cccs1)CC2,4.16
17,Cc1ccc(NC(=O)CN(C)C(=O)Cc2ccccc2F)cc1,3.53
18,CC1CCc2c(nc3nc[nH]n3c2=O)C1 (stereo not shown),6.99
19,COC(=O)[C@@]12CCCCN1[C@H](c1ccc(-c3ccccc3)cc1)[C@@H]1C(=O)N(C)C(=O)[C@@H]12.O=C(O)C(F)(F)F,14
20,CCCN(CCC)C(=O)c1ccc2c(c1)N(Cc1ccccc1)C(=O)CS2=O (stereo not shown),6.36
21,Cc1ccc(/C(N)=N/OC(=O)COc2ccccc2Cl)cc1,3.53
22,CN1CCN(c2ccccc2N)CC1,6.39

row,SMILES,"hERG current change (%, negative = inhibition) at 1uM [%]"
1,CC(C)S(=O)(=O)c1cnc(-c2ccccn2)nc1N,12.8
2,CC(=O)OCCCNc1cc(Sc2nc3ccccc3s2)c2nonc2c1[N+](=O)[O-],1.04
3,NC(=O)c1nsc(C(=O)N(Cc2ccc(F)cc2)C(C(=O)NCC2CCCO2)c2ccc(F)cc2)c1N (stereo not shown),-0.266
4,COc1ccc(-c2ccc(N(C)C)cc2)cc1[C@H]1[C@@H]2C=CCC[C@@]2(C)C(=O)N1Cc1ccccc1,13.1
5,COC(=O)CNC(=O)C(C)NC(=O)OCc1ccccc1 (stereo not shown),12.8
6,O=C(CNC(=O)N1CC(=O)Nc2ccccc21)NCCc1c[nH]c2ccccc12,0.511
7,CS(=O)(=O)c1ccc(C(=O)Nc2ccc(S(=O)(=O)N3CCCCC3)cc2)cc1,8.31
8,CC(=O)N(C(C)=O)c1nc(-c2ccccc2)cn1/N=C/c1cccc([N+](=O)[O-])c1,8.04
9,CCC(=O)Oc1ccc2c(C)cc(=O)oc2c1C(=O)c1ccccc1,10.3
10,Cc1ccccc1NC(=O)Nc1cc(S(N)(=O)=O)ccc1C,13.5
11,Nc1nc2n(n1)C(=O)CC(c1ccccc1)N2 (stereo not shown),7.48
12,O=[N+]([O-])c1ccccc1/C=C/C=N/N1CCCCC1,13
13,CC(NC(=O)Cn1cc(C(F)(F)F)ccc1=O)c1ccc(F)cc1 (stereo not shown),2.55
14,Cc1cccc(OCC(=O)NCc2cc(C)nc3ccccc23)c1,-2.69
15,Cn1nc(C(C)(C)C)c([N+](=O)[O-])c1C(=O)NC(C)(C)C,9.22
16,CCOc1cc(CO)cc(Br)c1OCC(=O)O,-5.71
17,CC(=O)Nc1ccc(CN2CCCC(C(=O)c3cccc(C(F)(F)F)c3)C2)cc1 (stereo not shown),7.86
18,COc1ccc(OC)c(NC(=O)C2CCCN2C(=O)C2CCC(C)CC2)c1 (stereo not shown),11.6
19,CCCCCCCCCS(=O)(=O)Nc1cc(C)ccn1,13.4
20,C=CCSc1nnc(-c2sc(-c3ccccc3)nc2C)n1C,-0.332
21,O=C(NC(NC(=O)c1c(F)cccc1F)c1ccc([N+](=O)[O-])cc1)c1c(F)cccc1F,-3.16
22,O=C(Nc1c(Cl)cc(Cl)cc1C(=O)NCc1cccnc1)c1ccc(Cl)cc1Cl,2.15

# Reference: PMC4336329 (PLoS ONE, 2015)
